Measurements taken from PubChem BioAssay AID360 (National Center for Advancing Translational Sciences (NCATS), 2006).
In all, about 48,000 compounds went through this assay and about 550 (1.1%) were called active. About 4% were inconclusive and are not listed. Rule as the data show it: active = potency below about 15 µM; inconclusive = mostly about 16 µM to 33 µM; inactive = weaker than that. This is one part of the list.

molecular target: Lysosomal acid glucosylceramidase (Homo sapiens) (UniProt P04062); assay: Glucocerebrosidase; settings: purified enzyme, resorufin glucoside fluorescence (screen aimed at inhibitors), 20 min;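 also: the screen sought inhibitors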
Outline: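 Normal human glucocerebrosidase (0.2 nM final) was assayed with resorufin β-D-glucopyranoside (30 uM final) in 50mM citric acid/KH2PO4, 10mM sodium taurocholate, 0.01% tween-20, pH 5.9. Compounds were titrated; fluorescence (Ex 548, Em 600) read after 20 min at RT.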
Potency is read from the fitted curve at half-maximal effect.

Chain of UniProt P04062 (P04062 whole entry, looked up): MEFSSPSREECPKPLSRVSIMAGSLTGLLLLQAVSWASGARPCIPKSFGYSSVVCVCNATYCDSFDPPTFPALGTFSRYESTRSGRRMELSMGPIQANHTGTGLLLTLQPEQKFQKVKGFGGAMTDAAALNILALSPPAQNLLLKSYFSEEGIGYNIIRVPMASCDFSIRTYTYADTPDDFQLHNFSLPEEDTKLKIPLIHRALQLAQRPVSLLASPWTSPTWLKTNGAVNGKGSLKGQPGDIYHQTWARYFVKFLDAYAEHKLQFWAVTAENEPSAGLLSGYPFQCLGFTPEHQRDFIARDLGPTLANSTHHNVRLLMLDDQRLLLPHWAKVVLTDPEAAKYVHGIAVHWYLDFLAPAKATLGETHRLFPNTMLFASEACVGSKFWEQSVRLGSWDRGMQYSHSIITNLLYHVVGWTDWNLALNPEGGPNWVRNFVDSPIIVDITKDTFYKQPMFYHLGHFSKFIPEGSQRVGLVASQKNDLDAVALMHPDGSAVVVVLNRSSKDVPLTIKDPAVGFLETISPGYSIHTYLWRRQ

Potency, inactive:
CCOC(=O)CSc1nc2ccsc2c(=O)n1C1CCN(C(=O)OCC)CC1 > 76.9 µM
Cc1ccc(N2C(=O)c3n[nH]c(C)c3C2c2cccnc2)cc1 (configuration not stated) > 76.9 µM
CCOC(=O)N1CCN(C(=O)c2ccccc2CCc2ccccc2)CC1 > 76.9 µM
COc1ccc(S(=O)(=O)Nc2nncs2)cc1 > 76.9 µM
Cc1nc(Nc2ccncc2)c2oc3ccccc3c2n1 > 76.9 µM
Cc1occc1C(=O)Nc1ccc2c(c1)OCO2 > 76.9 µM
c1ccc(Cn2nnc3c(N4CCC5(CC4)OCCO5)ncnc32)cc1 > 76.9 µM
CCOC(=O)c1ccc(NC2c3ncccc3C(=O)N2Cc2ccc(F)cc2)cc1 (configuration not stated) > 76.9 µM
O=C(NCc1cccnc1)c1cccc2c1C(=O)N(C1CCCCC1)C2 > 76.9 µM
CCCCOc1ccc(C(=O)NC)cc1 > 76.9 µM
O=C(OCC(=O)N1CCN(C(=O)c2ccco2)CC1)c1sc2cc(F)ccc2c1Cl > 76.9 µM
Cc1cccc(NC(=O)CSc2nnc(-c3ccccc3Br)o2)c1C > 76.9 µM
COCC(=O)Nc1cc(OC)ccc1OC > 76.9 µM
CC(/C=N/n1cnnc1)=C\c1ccco1 > 76.9 µM
CCS(=O)(=O)N1CCC(C(=O)NCCCN2CCCC2)CC1 > 76.9 µM
COc1ccc(C)cc1S(=O)(=O)N(C)CC(=O)N1CCCCCC1 > 76.9 µM
Nn1c(SCC(=O)NCc2ccccc2)nnc1C1CC1 > 76.9 µM
COCCNC(=O)Cn1nc(-c2ccccc2OC)ccc1=O > 76.9 µM
CC1(C)Cc2c(C#N)c(N)n(-c3ccccc3)c(=O)c2CO1 > 76.9 µM
Cn1cccc1C(=O)c1ccc(Cl)cc1Cl > 76.9 µM
O=C(CSc1nnc(Cn2c(=O)sc3ccccc32)n1-c1ccccc1)N1CCOCC1 > 76.9 µM
O=C(C1Cc2ccccc2CN1S(=O)(=O)c1ccc(F)cc1)N1CCCCCC1 (configuration not stated) > 76.9 µM
Cc1ccc(C)c(C(=O)CSc2n[nH]c(-c3ccncc3)n2)c1
Cc1ccc(-n2c(CSc3nc(C)cc(C)n3)nnc2SCC(=O)NCc2ccco2)cc1 > 76.9 µM
COc1ccc(-n2c(=O)c3ccccc3n(CC(=O)Nc3cc(C)on3)c2=O)cc1OC > 76.9 µM
CC(=O)N1CCc2cc(S(=O)(=O)Nc3cccc(C(F)(F)F)c3)ccc21 > 76.9 µM
CC(C)n1c(NCc2nc3ccccc3n2C)nc2ccccc21 > 76.9 µM
O=C(C1CCN(S(=O)(=O)c2ccc3c(c2)OCCO3)CC1)N1CCc2ccccc21 > 76.9 µM
CCCCOC(=O)C1[C@H]2C(=O)N(CCc3ccccc3)C[C@]23C=C[C@H]1O3 (some centres not stated) > 76.9 µM
CCOc1ccc(NC(=O)C2CCC(N3C(=O)C4CC=CCC4C3=O)CC2)cc1 (configuration not stated) > 76.9 µM
O=C(O)COc1ccc2nsnc2c1Cl > 76.9 µM
COc1ccc(-c2noc(CCC(=O)Nc3nc4ccccc4s3)n2)cc1 > 76.9 µM
Cc1csc(SCC(=O)Nc2nc3ccccc3s2)n1 > 76.9 µM
CCn1c(=O)[nH]c2cc(C(=O)N3CCN(c4ccccc4)CC3)ccc2c1=O > 76.9 µM
CN(Cc1ccccc1)Cc1nc2c(c(=O)n(C)c(=O)n2C)n1Cc1ccc(Cl)cc1 > 76.9 µM
O=C(NCc1ccco1)c1ccc(N2CCCC2=O)cc1 > 76.9 µM
OC1(c2cn(Cc3ccccc3)nn2)CCCCC1 > 76.9 µM
CCC(C)N1CC(C(=O)NC2CCCCC2)CC1=O (configuration not stated) > 76.9 µM
O=C(CSC1=NCCS1)Nc1ccnc2ccccc12 > 76.9 µM
N#CCc1ccc(NC(=O)Nc2cccc(Cl)c2)cc1 > 76.9 µM
CC1CCN(C(=O)CCc2nc3cc(S(=O)(=O)N(C)C)ccc3n2C)CC1 > 76.9 µM
Cc1ccc2c(c1)N(CCC(=O)NCc1cccnc1)C(=O)CO2 > 76.9 µM
O=C(c1ccc(S(=O)(=O)N2CCCCC2)cc1)N1CCN(c2ccccc2)CC1 > 76.9 µM
CCSc1nnc(NC(=O)CSc2nccn2-c2cccc(C)c2C)s1 > 76.9 µM
COc1ccc(N2C(=O)CCC(C(=O)Nc3ccccn3)C2c2ccc(OC)c(OC)c2)cc1 (configuration not stated) > 76.9 µM
CCOC(=O)N1CCC(NS(=O)(=O)c2cc(Br)cc3c2N(C(=O)CC)CC3)CC1 > 76.9 µM
CCOc1cccc(C(=O)Nc2cccc(-c3nnc(-c4ccc(C)cc4)o3)c2)c1 > 76.9 µM
Cc1nc2ccccc2c(=O)n1/N=C/c1ccc(N(C)C)cc1 > 76.9 µM
O=c1oc2ccc3ccccc3c2cc1-c1nnc(-c2ccccc2)o1 > 76.9 µM
O=C(O)c1ccc(C(=O)c2ccc3c(c2)C(=O)N(Cc2ccco2)C3=O)cc1 > 76.9 µM
COc1cc2cc(C)c(SCC(=O)N3CCOCC3)nc2cc1OC > 76.9 µM
Cc1nc(SCc2ccc(Br)cc2)[nH]c(=O)c1C > 76.9 µM
O=C(c1cc2c(=O)n3ccccc3nc2s1)N1CCOCC1 > 76.9 µM
COc1ccc(OC)c(C2C3CN(C(C)C)CC=C3C(C#N)=C(N)C2(C#N)C#N)c1 (configuration not stated) > 76.9 µM
CC(=O)c1cccc(NC(=O)CN(c2ccccc2)S(C)(=O)=O)c1 > 76.9 µM
Cc1ccc2nc(Cc3ccc(N)cc3)oc2c1 > 76.9 µM
Cc1ccc(-c2nnn(CC(=O)N(Cc3ccccc3)C(C(=O)NC(C)(C)C)c3ccncc3)n2)o1 (configuration not stated) > 76.9 µM
CCOC(=O)C(Cc1ccccc1)NC(=O)CCc1c(C)nc2ncnn2c1C (configuration not stated) > 76.9 µM
COc1ccc(NC(=O)Nc2nccs2)cc1 > 76.9 µM
O=C(O)c1ccc(-c2ccccc2Cl)o1 > 76.9 µM
CCCCCCn1c(SCCC)nc2c1c(=O)[nH]c(=O)n2C > 76.9 µM
COc1ccccc1-c1nnc(SCC(=O)O)n1C > 76.9 µM
COC(=O)C1(C(O)C(=O)c2ccc(C)cc2C)CCCCC1 (configuration not stated) > 76.9 µM
CCC(C(=O)Nc1cc(C)nn1-c1nc(C)cc(C)n1)c1ccccc1 (configuration not stated) > 76.9 µM
Cc1nc(NC(=O)c2ccc(Br)s2)sc1C(=O)N(C)C > 76.9 µM
c1ccc(Cn2nnnc2C(c2cccs2)N2CCSCC2)cc1 (configuration not stated) > 76.9 µM
O=C(c1ccccc1NS(=O)(=O)c1ccc(Br)s1)N1CCOCC1 > 76.9 µM
C/C(Cl)=C/Cn1c(=O)c2c(nc(Br)n2Cc2ccccc2)n(C)c1=O > 76.9 µM
CCN1CCN(C(c2ccccc2OC)c2nnnn2C2CCCCC2)CC1 (configuration not stated) > 76.9 µM
Cc1oc(-c2ccc(Cl)cc2)nc1CN1CCCC(C(=O)N2CCc3ccccc32)C1 (configuration not stated) > 76.9 µM
O=C(CSc1nnc(-c2ccncc2)n1Cc1ccco1)OC1CCCCC1 > 76.9 µM
O=C(NCC1CCCO1)c1sc(=S)n2c1[nH]c(=O)c1ccc(C(=O)N3CCCCC3)cc12 (configuration not stated) > 76.9 µM
COC(=O)c1cc(OC)c(OC)c(OC)c1N > 76.9 µM
O=C(NCc1cccnc1)c1ccc(COc2ccccc2Br)o1 > 76.9 µM
CCC1(C)Cc2nc3sc(C(=O)O)c(N)c3cc2CO1 (configuration not stated) > 76.9 µM
CCS(=O)(=O)C(=C1NCCO1)S(=O)(=O)CC > 76.9 µM
Cc1cc(N)n(-c2nc(-c3cccnc3)nc3ccccc23)n1 > 76.9 µM
CCOC(=O)c1cccc2c1-c1ccccc1/C2=N/O > 76.9 µM
CC(C)(C)OC(=O)N1CCC[C@H]1c1nnc(SCc2c(F)cccc2Cl)o1 > 76.9 µM
CC1Cc2ccccc2N1C(=O)CSc1nc2c(c(=O)n(C)c(=O)n2C)n1Cc1ccccc1 (configuration not stated) > 76.9 µM
O=C(Cn1c(NCCO)nc2ccccc21)c1ccco1
Cc1csc(NC(=O)CSc2nnc(-c3ccccn3)n2-c2ccc(C)c(C)c2)n1 > 76.9 µM
CN=c1oc2ccc(Cl)cc2cc1C(N)=O > 76.9 µM
NC(=O)c1c(NC(=O)CN2CCOCC2)sc2c1CCC2 > 76.9 µM
CCC(C)Nc1nc2c(c(=O)[nH]c(=O)n2C)n1CCC(C)C (configuration not stated) > 76.9 µM
CC(NS(C)(=O)=O)C(c1cccs1)N1CCN(c2ccccc2)CC1 (configuration not stated) > 76.9 µM
CCOC(=O)c1c(C)c(C(=O)Nc2ccccc2)c(C)n1CC > 76.9 µM
ON1C(c2ccc(Cl)cc2Cl)N(O)[C@H]2CCCC[C@H]21 (some centres not stated) > 76.9 µM
CC(C)(C)OC(=O)N1CCCC1C(=O)N1CCc2ccccc21 (configuration not stated) > 76.9 µM
Cc1ccccc1S(=O)(=O)Cc1ccc(C(=O)NCCCOC(C)C)o1 > 76.9 µM
Cc1ocnc1C(=O)Nc1ccc(Cl)cc1 > 76.9 µM
CC(=O)n1nc(-c2ccco2)nc1N > 76.9 µM
